According to PubChem BioAssay AID1030 (National Center for Advancing Translational Sciences (NCATS), 2008):
Among all 220,000 compounds or so, about 16,000 (7.3%) were called active. This list was built around the results that the source calls inconclusive (neither active nor inactive); the mix of calls is not that of the screen. Calls come from the whole dose curve; as a rule, active = well fitted inhibition curve with a large enough effect (not every such curve was filed as active); inconclusive = small, poorly fitted or top-dose-only effect, or another doubt; inactive = no such curve, though single readings can be large or run the other way. No potency is given beside an inconclusive call; the fits are too rough.

Target: Aldehyde dehydrogenase 1A1 (Homo sapiens) (UniProt P00352)
UniProt P00352, sequence (P00352 whole entry, looked up): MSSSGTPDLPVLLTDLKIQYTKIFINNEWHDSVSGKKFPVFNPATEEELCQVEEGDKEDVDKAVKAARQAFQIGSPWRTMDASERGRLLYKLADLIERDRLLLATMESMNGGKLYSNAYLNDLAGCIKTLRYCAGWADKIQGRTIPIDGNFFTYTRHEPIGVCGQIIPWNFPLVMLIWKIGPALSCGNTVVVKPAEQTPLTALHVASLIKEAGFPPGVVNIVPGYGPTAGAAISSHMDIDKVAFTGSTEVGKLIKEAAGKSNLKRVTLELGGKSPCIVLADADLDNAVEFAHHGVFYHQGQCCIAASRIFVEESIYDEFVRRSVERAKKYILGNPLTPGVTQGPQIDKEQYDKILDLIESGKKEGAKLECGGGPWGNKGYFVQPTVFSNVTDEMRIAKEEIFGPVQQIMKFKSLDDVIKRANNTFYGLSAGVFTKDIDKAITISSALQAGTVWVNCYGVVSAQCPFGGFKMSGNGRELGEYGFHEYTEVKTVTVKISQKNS
Experiment: qHTS Assay for Inhibitors of Aldehyde Dehydrogenase 1 (ALDH1A1);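 for activity, negative = inhibition: plate controls were no enzyme wells and a reference inhibitor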
Settings: Purified ALDH1A1, NADH fluorescence, propionaldehyde substrate; series mostly up to 75.3 µM
Potency is the fitted concentration of half-maximal effect; tags give direction and shape of the fitted curve.

| Compound | Potency | activity, negative = inhibition |
| --- | --- | --- |
| Cc1ccc(N=C2c3ccccc3C(=O)C2[N+](=O)[O-])cc1C (configuration not stated) | inconclusive [inhibitor, single point] |  |
| c1cncc(-c2nc(NCC3COc4ccccc4O3)c3ccccc3n2)c1 (configuration not stated) | inconclusive [inhibitor, single point] |  |
| Cc1ccc(NC(=O)CC2SC(=O)N(c3ccccc3)C2=O)cc1 (configuration not stated) | active: 10 µM |  |
| O=C(O)CSc1nnc(C2CC2)n1-c1ccccc1 | inconclusive [inhibitor, single point] |  |
| O=S1(=O)CC(O)C(NCc2ccco2)C1 (configuration not stated) | inactive |  |
| COc1ccc2nc(NC(=O)c3ccc(Br)s3)sc2c1 | inconclusive [inhibitor, single point] |  |
| COc1ccc(-c2ccc(C(=S)N3CCN(C(C)=O)CC3)o2)cc1 | active: 11.2 µM |  |
| CCCc1ccc(OCCNC(C)=O)cc1 | inconclusive [inhibitor, single point] |  |
| Cc1cc(C(=O)CSc2nnnn2-c2ccccc2)c(C)n1-c1ccc2c(c1)OCO2 | active: 0.251 µM |  |
| COc1cc2c(cc1OC)CN(C(=O)c1ccco1)CC2 | active: 14.1 µM |  |
| CSc1ncnc2c1ncn2[C@@H]1O[C@@H](CO)[C@H](O)O[C@@H]1O |  | inactive: 7.95% [at 13.5 µM] |
| CC#CCN1C(=O)N[C@@H](c2ccccc2)C(C(=O)OC)=C1C |  | inactive: 15.8% [at 13.5 µM] |
| Cc1nc(NC(=O)CSc2nnc3ccccn23)c(Cl)cc1Cl | inactive |  |
| COc1ccccc1/C=C/C(=O)Nc1ccc2c(c1)OCCO2 | inconclusive [inhibitor, single point] |  |
| O=[N+]([O-])c1cc(F)c2cccnc2c1O | active: 17.8 µM |  |
| Cc1nn(Cc2c(F)c(F)c(F)c(F)c2F)c(C)c1NC(=O)c1ccc(COc2ccc(F)cc2)o1 | inactive |  |
| COc1ccc(C(=O)N[C@H](C(=O)OCC(=O)NC(=O)c2cccn2C)C(C)C)cc1 | inactive |  |
| Cn1c(N)c(C(=O)COC(=O)c2ccnc3ccccc23)c(=O)n(C)c1=O | inactive |  |
| O=C(Nc1ccc(C(=O)NC2CCCCC2)cc1)c1cncc(Br)c1 | inactive |  |
| Cc1ccc(C(=O)NCC(=O)NCC(=O)OCC(=O)c2cccs2)cc1 | inactive |  |
| C=CCNC(=O)N1CCc2nc(-c3ccccc3)c3c(c2C1)CO[C@@H](C)C3 |  | inactive: -4.64% [at 13.5 µM] |
| O=C(CN1CCC(NC(=O)Cc2ccccc2)CC1)Nc1cccc2ccccc12 | inactive |  |
| COc1ccc(OC)c(S(=O)(=O)N2CCC(C(=O)NCCC3=CCCCC3)CC2)c1 | active: 22.4 µM |  |
| O=C(Nc1ccc2nc3n(c(=O)c2c1)CCCCC3)c1ccccn1 | inconclusive [inhibitor, partial curve] |  |
| CC1(C)CC(=O)C2=C(C1)N(c1cccc(O)c1)C1=C(C2)C(=O)CC(C)(C)C1 | inconclusive [inhibitor, partial curve] |  |
| OC[C@@H](O)CN1CCN(c2ccccc2)CC1 | inactive |  |

| Compound | Potency | activity, negative = inhibition |
| --- | --- | --- |
| CCC(NC(=O)c1ccccc1NC(=O)c1ccccc1)C(=O)O (configuration not stated) | inactive |  |
| Cc1cccc(NC(=O)c2sc3nc4c(c(-c5cccs5)c3c2N)CN(C)CC4)c1 | active: 14.1 µM |  |
| CC(C)(C)Sc1ccc(/C=N/O)cc1[N+](=O)[O-] | active: 22.4 µM |  |
| Cc1cc(C)cc(N(CC(=O)N2CCN(Cc3ccccc3)CC2)S(=O)(=O)c2c(C)noc2C)c1 | inactive |  |
| O=C(COc1ccccc1/C=C1\SC(=O)NC1=O)Nc1ccccc1 | inconclusive [inhibitor, single point] |  |
| O=C1NC(c2cccs2)Nc2sc3c(c21)CCCC3 (configuration not stated) | inconclusive [inhibitor, partial curve] |  |
| CCOCCCNC(=S)NCCNc1nc2c(C)cccc2cc1C#N | inconclusive [inhibitor, partial curve] |  |
| CCOC(=O)c1c(/N=C/N(C)C)sc(C=O)c1-c1ccccc1 | inconclusive [inhibitor, partial curve] |  |
| O=C(c1cc(-c2ccc3c(c2)OCO3)on1)N1CCN(c2ccccc2)CC1 | inconclusive [inhibitor, single point] |  |
| Cc1ccc(-n2c(C)cc3c2CCCC3=O)cc1 | inconclusive [inhibitor, single point] |  |
| CCc1ccc(OCC(=O)Nc2cc(S(=O)(=O)CC)ccc2O)cc1 | inconclusive [inhibitor, single point] |  |
| Cc1cc(NC(=O)COC(=O)[C@@H](NS(=O)(=O)c2ccccc2)C(C)C)no1 | inconclusive [inhibitor, single point] |  |
| CC(CCc1ccccc1)NC(=O)COC(=O)c1ccccc1O (configuration not stated) | inconclusive [inhibitor, partial curve] |  |
| c1ccc(Cc2nnc(N3CCCCC3)c3ccccc23)cc1 | inactive |  |
| CSc1ccccc1NC(=O)c1cc2ncc(Br)cn2n1 | inconclusive [inhibitor, partial curve] |  |
| COc1ccc(NC(=O)CN(c2ccccc2)S(=O)(=O)N(C)C)cc1Cl | inconclusive [inhibitor, single point] |  |
| O=c1cc2[nH]c3ccccc3c(=O)n2nc1-c1ccccc1 | inconclusive [inhibitor, single point] |  |
| C1CCC(c2nn3c(-c4n[nH]c5c4CCC5)nnc3s2)CC1 | inconclusive [inhibitor, single point] |  |
| O=C(CN1CCN(C(=O)c2ccco2)CC1)Nc1ccc2c(c1)OCCO2 | active: 12.6 µM |  |
| Fc1ccc(-n2c(-c3cccs3)nc3nc4ccccc4nc32)cc1 | inconclusive [inhibitor, full curve] |  |
| O=C(CSCc1ccccc1)Nc1ccc(F)c(F)c1 | inconclusive [inhibitor, single point] |  |
| N#Cc1nc(-c2ccco2)oc1NCCCn1ccnc1 | inconclusive [inhibitor, partial curve] |  |
| Cc1cc(C)nc(NS(=O)(=O)c2ccc(NC(=O)C3COc4ccccc4O3)cc2)n1 (configuration not stated) | inconclusive [inhibitor, single point] |  |
| COc1ccc2nc(NC(=O)CSc3nnc(C)n3N)sc2c1 | inconclusive [inhibitor, single point] |  |
| N#Cc1ccc(CSc2nnc(NC(=O)c3ccc4ncsc4c3)s2)cc1 | inconclusive [inhibitor, partial curve] |  |
| O=C(Nc1ccc2oc(-c3ccc4ccccc4c3)nc2c1)c1ccc2c(c1)OCCO2 | inconclusive [inhibitor, partial curve] |  |

| Compound | Potency | activity, negative = inhibition |
| --- | --- | --- |
| Cc1cc(C)cc(OC(=O)N2CCOCC2)c1 | inactive |  |
| Cc1cc(-c2nnc(CCC(=O)NC(C)c3ccc(F)cc3)o2)no1 (configuration not stated) | inactive |  |
| CCOC(=O)c1ccc(CNC(=O)C2CCCCC2C(=O)OCC(F)(F)F)o1 (configuration not stated) | inconclusive [inhibitor, single point] |  |
| CC(C)(C)C(=O)NC(=S)Nc1ccccc1F | inconclusive [inhibitor, single point] |  |
| O=S(=O)(Cc1ccccc1)N1CCN(C/C=C/c2ccccc2)CC1 | inconclusive [inhibitor, single point] |  |
| Nc1nc(SCc2nc3sc4c(c3c(=O)[nH]2)CCCC4)n[nH]1 | inconclusive [inhibitor, partial curve] |  |
| CCN(CC)CCNC(=O)c1sc2ncn(CC(=O)Nc3ccc(C)c(Cl)c3)c(=O)c2c1C | inactive |  |
| CCCCn1c(=O)c(C(C)=O)c(O)c2ccccc21 | inactive |  |
| CC(/C=C/c1ccccc1)=N\NC(=O)Cn1nc(C)cc1C | inactive |  |
| C=CCn1c(SCC(=O)c2cccs2)nc2sc(CC)cc2c1=O | active: 3.55 µM |  |
| CN(C)CCCCOc1ccc(Br)cc1Cl | inconclusive [inhibitor, single point] |  |
| CCOc1ccc(-n2c(SCC(=O)NC(C)CC)nc3n[nH]c(C)c3c2=N)cc1 (configuration not stated) | inconclusive [inhibitor, single point] |  |
| Cc1oc2c(O)c(O)ccc2c(=O)c1-c1cnn(-c2ccccc2)c1 | active: 28.2 µM |  |
| CCN(CC(=O)Nc1ccc(C)c(F)c1)CC(=O)NC(C)C | active: 3.16 µM |  |
| CCCSC1=N/C(=C/c2ccsc2)C(=O)N1c1ccccc1 | active: 14.1 µM |  |
| COc1ccc(/C=N/Nc2nc(C)c([N+](=O)[O-])c(N(C)c3ccccc3)n2)cc1OC | inactive |  |
| Fc1ccc(-c2cc(C(F)(F)F)nc(NCC3CCCO3)n2)cc1 (configuration not stated) | inconclusive [inhibitor, single point] |  |
| COc1ccccc1NC(=S)NC(=O)CCCOc1ccc(Cl)cc1Cl | active: 11.2 µM |  |
| CCOC(=O)c1sc(NC(=O)c2ccco2)c(C#N)c1C | inconclusive [inhibitor, single point] |  |
| CCCc1[nH]n(-c2ccc([N+](=O)[O-])cc2)c(=O)c1C=NCCc1ccc(OC)c(OC)c1 | active: 1.78 µM |  |
| COc1ccc(C=O)cc1Oc1nc(Cl)ncc1F | inconclusive [inhibitor, single point] |  |
| CCN(CC)S(=O)(=O)c1ccc(N=NC2=C(O)CCCC2=O)cc1 | inconclusive [inhibitor, single point] |  |
| NC(=O)C1CCCN(C(=S)NCc2ccc3c(c2)OCO3)C1 (configuration not stated) | active: 25.1 µM |  |
| COc1ccc(S(=O)(=O)Nc2ccccc2C)cc1C(=O)N1CCOCC1 | active: 10 µM |  |
| CCCOC(=O)Nc1ccc(C(N)=O)cc1 | inconclusive [inhibitor, single point] |  |
